The chains are these.
B1: LINE1-mini (parent)
chain: GGCAGAGCUCAACACAGCGUGGCAAAGUGGCUGUGGCUAGACUGCC

The values below come from the RNAGym collection of RNA variant scans (doi:10.7554/elife.90254).

Read counts are not given, so values of variants with three or more changes are uncertain.

The data set covers variants of B1. Kind of data set: self-cleavage, relative activity (ratio to wild type); higher = more cleavage; in vitro, sequencing; the parent is a self-cleaving ribozyme.
Take A11G G29A C31U: the self-cleavage turned out to be 0.03.

On to A12C A14G G27A G30C U38C A39U G44U, for which the self-cleavage worked out at 0.

For the variant A11U A16U G40A, the self-cleavage was determined as 0.04.

With A11U C13U C42A, the self-cleavage was determined as 0.03.

A11U G36U G44U C46U: the self-cleavage was determined as 0.

For the variant A11U G21A U38A, the self-cleavage was 0.04.

A11U G22A C37A: the self-cleavage was found to be 0.02.

A11U G27U G40C C45G: the self-cleavage is 0.02.

Take A11U C31A A41C: the self-cleavage came to 0.01.

On to A12C A16C C18U C45G, for which the self-cleavage stood at 0.01.

In the case of A11U A12U C37A U38A A41G, the self-cleavage was determined as 0.01.

In the case of A11G U32G C45U, the self-cleavage worked out at 0.

A12C A14U C23A U38G: the self-cleavage is 0.01.

Regarding A11U C13A G29C, the self-cleavage worked out at 0.01.

For A11U C13G A16G G17C G27U G30C G40A, the self-cleavage is 0.01.

On to A12C A14G G17U, for which the self-cleavage turned out to be 0.01.

A11G C18U G33A U43C: the self-cleavage amounted to 0.03.

Take A11G G19U C42U: the self-cleavage came out at 0.01.

For A11U C18U G36U, the self-cleavage was 0.02.

In the case of A11U C13G G29C U34A, the self-cleavage turned out to be 0.01.

As for A11U G29U A41U G44C, the self-cleavage came out at 0.09.

As to A11G C15U C31G G35U C37G, the self-cleavage is 0.01.

As to A11U G21A G35U, the self-cleavage was 0.01.

As to A11U A14C U34A, the self-cleavage was found to be 0.01.

For A11G G27A U38A G40A, the self-cleavage is 0.

Consider A11U C13G C18U, for which the self-cleavage is 0.

Take A11U C15A C31U: the self-cleavage was 0.03.

In the case of A11U A16U C18U G19U G33C G36A A41U, the self-cleavage stood at 0.01.

Turning to A11U A25C U28C, the self-cleavage was 0.03.

For the variant A11U C13G C18U G22A C23A C31U A39U, the self-cleavage was found to be 0.01.

On to A11G C15U C23U U28G U43A, for which the self-cleavage stood at 0.

Regarding A11G C15U U20C G22A G30A, the self-cleavage came to 0.04.

In the case of A11G G19C G27U, the self-cleavage was 0.01.

In the case of A11U C13U G29U, the self-cleavage was 0.03.

Regarding A11U C13U G29C, the self-cleavage turned out to be 0.02.

On to A11U A12C C42G, for which the self-cleavage was 0.01.

In the case of A12C A16C C18U C31G, the self-cleavage turned out to be 0.01.

For A11U A14G G44A, the self-cleavage came out at 0.02.

On to A11U U20G C37G G44A C45G, for which the self-cleavage came out at 0.03.

For the variant A11U U28A G44A, the self-cleavage turned out to be 0.03.

For the variant A11U A24U A26G G27A G40A G44U, the self-cleavage came to 0.01.

A11U G29C G35U: the self-cleavage was determined as 0.02.

With A11G G29U G35C, the self-cleavage came out at 0.05.

A11G G17U G30A: the self-cleavage was 0.05.

Turning to A11G G33A C37A U38A A39G, the self-cleavage was 0.02.

For A11U C15U C42U U43G, the self-cleavage was 0.04.

Consider A11U G30C G44A, for which the self-cleavage is 0.03.

Consider A11U A12G G27A G36U A41U, for which the self-cleavage was 0.01.

On to A11U A14G G29A U34C, for which the self-cleavage came to 0.05.

Consider A12C A14U G21C C23A A25U U28C U43A, for which the self-cleavage amounted to 0.04.

On to A12C A14U C31A G35A G44A, for which the self-cleavage was 0.04.

For the variant A11G G19A C31U U34C G35C U38G A39U, the self-cleavage worked out at 0.02.

On to A11G U20G A26C C37A G40A C42U, for which the self-cleavage amounted to 0.

A11U G17C G30C: the self-cleavage came out at 0.02.

Consider A12C A14C U28C, for which the self-cleavage was 0.03.

Consider A11G G21C A25G U28A, for which the self-cleavage amounted to 0.02.

In the case of A11U G29U C37G C45G, the self-cleavage is 0.

Regarding A11G C18U G27U, the self-cleavage worked out at 0.03.

As to A11U G27A C37U A41U, the self-cleavage is 0.

On to A11U G19U G21U, for which the self-cleavage was determined as 0.07.

Regarding A11U G21C A26G U32A G44A, the self-cleavage was 0.01.

Regarding A11U G17C C37U, the self-cleavage came out at 0.04.

In the case of A11U G22C A25U G27U, the self-cleavage worked out at 0.07.

Consider A11U A24C G36A, for which the self-cleavage is 0.01.

As for A11U U20C C23A, the self-cleavage stood at 0.09.

In the case of A11G C18U G21U, the self-cleavage amounted to 0.02.

Regarding A11U A26G G35U, the self-cleavage was found to be 0.

For A11U G17U G35U C46U, the self-cleavage was determined as 0.01.

As for A11G G36A A41U, the self-cleavage was found to be 0.01.

As for A11G G22U G35U, the self-cleavage turned out to be 0.01.

For the variant A11U C18A G35A G36U, the self-cleavage is 0.01.

In the case of A11G G35U U43C, the self-cleavage amounted to 0.03.

As to A11U A14G A41G, the self-cleavage was determined as 0.02.

As for A11U A25U G27A U34A, the self-cleavage is 0.01.

With A11U G21C G33A, the self-cleavage amounted to 0.02.

For the variant A11U G29U G36C, the self-cleavage is 0.02.

Consider A11U C31A A39C A41C, for which the self-cleavage is 0.

Consider A11U A12C G22A, for which the self-cleavage worked out at 0.05.

As to A11U A12G A16G C45U, the self-cleavage was determined as 0.

Consider A12C A14C U28C G30A, for which the self-cleavage was 0.

As for A11U A39C C42U, the self-cleavage came to 0.01.

Regarding A12C A16G C45U C46U, the self-cleavage is 0.01.

Take A11U C23G A24C: the self-cleavage was found to be 0.02.

In the case of A11U U20G G21U C31G, the self-cleavage is 0.01.

With A11G G30C U32G C37G, the self-cleavage is 0.04.

A11U A16G G21U G27A G35U C46A: the self-cleavage was determined as 0.01.

With A11G G19A A26U G35C, the self-cleavage is 0.01.

On to A11U C13U A14C A41G, for which the self-cleavage was 0.

A11G U38G A39U: the self-cleavage worked out at 0.01.

With A11U A26U C37A A41U, the self-cleavage was determined as 0.

Take A11G C18A U32C G40A: the self-cleavage is 0.01.

With A11U C18U U43A, the self-cleavage stood at 0.02.

Consider A12C A14C U38C G40A, for which the self-cleavage was determined as 0.

Turning to A11U A12U A14G, the self-cleavage is 0.04.

A11U G21A G33C: the self-cleavage amounted to 0.

As to A11U A14G C18A C23G G33C, the self-cleavage worked out at 0.02.

As to A11G C18G A24U U34A C37A, the self-cleavage stood at 0.

As for A11U G27C C37A A41U, the self-cleavage is 0.02.

As to A11U U28A C45G, the self-cleavage came to 0.02.

Take A11G G17A U38A: the self-cleavage is 0.03.

Turning to A11G G17A U38C, the self-cleavage was 0.01.

Turning to A11U A12C G30C, the self-cleavage came out at 0.04.

On to A11U U28G G33C, for which the self-cleavage is 0.01.

For the variant A11U U32C G36C, the self-cleavage was 0.04.

Take A11U G21U U32A C37U C45A: the self-cleavage was found to be 0.01.

A11U U38C C42G G44A: the self-cleavage worked out at 0.

Take A11G G17A U20A G33U C45G: the self-cleavage was determined as 0.01.

Take A11U C13A G17U G40U C45A: the self-cleavage came out at 0.04.

As to A11U G19U C37A G44A, the self-cleavage stood at 0.

Take A12C A14C A24U A39C: the self-cleavage turned out to be 0.02.

A11G G19U G29A G33U C42U C45U: the self-cleavage was determined as 0.01.

Consider A11U C13G A26U A39G, for which the self-cleavage worked out at 0.02.

A11U A16C G19C: the self-cleavage was 0.

Turning to A11G G22C C31U G33A C46A, the self-cleavage was 0.

Consider A11U A41G C45A, for which the self-cleavage stood at 0.01.

Regarding A11G G17U A25G G44C, the self-cleavage was found to be 0.

For A11G U28G U43C, the self-cleavage came out at 0.

Take A11U C18A G36U A41G: the self-cleavage came to 0.02.

On to A11U A16C U43A, for which the self-cleavage was found to be 0.01.

On to A12C A14U G40C A41C, for which the self-cleavage was found to be 0.

A11U C18A U20C C31A: the self-cleavage is 0.03.

With A11G C18U G21A G30A, the self-cleavage is 0.02.

On to A11G U28C G30C C37A, for which the self-cleavage is 0.

A11G G36C A41C: the self-cleavage worked out at 0.03.

Take A11U A12G G33A: the self-cleavage is 0.02.

Consider A11U A12U G27A C31U, for which the self-cleavage was 0.03.

Turning to A11U G35U C45A C46U, the self-cleavage was 0.01.

As to A11U G33C A39C, the self-cleavage stood at 0.01.

Consider A11U C15G G22C G44C, for which the self-cleavage came out at 0.02.

For A11U A25G G44C, the self-cleavage was determined as 0.05.

Turning to A12C A16C G27C C37U A41C, the self-cleavage came out at 0.

Take A12C A16G A24U G27C U28A A39G A41G: the self-cleavage was 0.

A11G C23A C37A: the self-cleavage amounted to 0.

Consider A11U U28A G30U G35U U38G C45U, for which the self-cleavage was found to be 0.01.

Consider A11U G21U U28C, for which the self-cleavage amounted to 0.09.

Turning to A11G G36A U43G C45G, the self-cleavage was determined as 0.04.

A11U G21U G40C: the self-cleavage is 0.01.

As for A11G G30U U34C G36C C37U C42A C46A, the self-cleavage amounted to 0.01.

On to A11G U32A U34A, for which the self-cleavage is 0.04.

On to A11U U34C G40U, for which the self-cleavage was 0.03.

Consider A11G G17U G22U C31U C42U, for which the self-cleavage came out at 0.05.

As to A12C A14U A25G G36A U43G, the self-cleavage turned out to be 0.03.

In the case of A11U U28C C46G, the self-cleavage was determined as 0.28.

On to A11U U28C C46U, for which the self-cleavage came out at 0.07.

For the variant A11U C13A G40A, the self-cleavage stood at 0.02.

Regarding A11U C15U A25C G44A C46U, the self-cleavage came out at 0.

With A11U C13A C23G A39C G40C G44A, the self-cleavage was 0.

As for A11G G21U U34A A41G, the self-cleavage stood at 0.02.

Take A11U G17C G35C: the self-cleavage was found to be 0.02.

Consider A11U C13U U28A U32A G36C, for which the self-cleavage is 0.

For A11G G35U G36A C45U, the self-cleavage worked out at 0.03.

Consider A11G G36A U38C, for which the self-cleavage came to 0.01.

Consider A11U A26C A41U, for which the self-cleavage turned out to be 0.11.

Turning to A11U A14G G17U G29U, the self-cleavage was determined as 0.01.

For A11U G22U A39G, the self-cleavage came to 0.09.

As for A11G G33C C37A, the self-cleavage is 0.01.

For A11U G17U C37U, the self-cleavage came to 0.04.

As to A11U C13U A25G G44A, the self-cleavage was determined as 0.01.

In the case of A11G G21U G22C C31G U43G C46U, the self-cleavage came to 0.02.

Turning to A11U A16G U34G, the self-cleavage is 0.04.

For A11G G40U G44U, the self-cleavage came out at 0.04.

As to A11U G44A C45G, the self-cleavage stood at 0.

On to A11U G21U G27C, for which the self-cleavage was 0.06.

Take A11U C13A G35C U43C: the self-cleavage worked out at 0.

Consider A11U G22U A26U, for which the self-cleavage was 0.03.

On to A11U A14G U20C C37U, for which the self-cleavage was 0.01.

Consider A11U A12C C13A A16C A39G A41U, for which the self-cleavage came out at 0.
